{"source": "PubChem BioAssay AID1347165", "about": "(National Center for Advancing Translational Sciences (NCATS), 2019)", "note": "The campaign covered roughly 220,000 compounds. About 5,700 (2.6%) were called active. The shares of active, inactive and inconclusive entries below differ from those in the screen. The call rests on the fitted dose curve; in most records, active means well fitted inhibition curve with a large enough effect; inconclusive means small, poorly fitted or top-dose-only effect; inactive means no such curve, though single readings can be large or run the other way. A potency beside an inconclusive call is a rough fit, not a confirmed value.", "data": [{"biological_target": "Lysine-specific demethylase 5B (Homo sapiens) (UniProt Q9UGL1)", "sequence (Q9UGL1 whole entry, looked up)": "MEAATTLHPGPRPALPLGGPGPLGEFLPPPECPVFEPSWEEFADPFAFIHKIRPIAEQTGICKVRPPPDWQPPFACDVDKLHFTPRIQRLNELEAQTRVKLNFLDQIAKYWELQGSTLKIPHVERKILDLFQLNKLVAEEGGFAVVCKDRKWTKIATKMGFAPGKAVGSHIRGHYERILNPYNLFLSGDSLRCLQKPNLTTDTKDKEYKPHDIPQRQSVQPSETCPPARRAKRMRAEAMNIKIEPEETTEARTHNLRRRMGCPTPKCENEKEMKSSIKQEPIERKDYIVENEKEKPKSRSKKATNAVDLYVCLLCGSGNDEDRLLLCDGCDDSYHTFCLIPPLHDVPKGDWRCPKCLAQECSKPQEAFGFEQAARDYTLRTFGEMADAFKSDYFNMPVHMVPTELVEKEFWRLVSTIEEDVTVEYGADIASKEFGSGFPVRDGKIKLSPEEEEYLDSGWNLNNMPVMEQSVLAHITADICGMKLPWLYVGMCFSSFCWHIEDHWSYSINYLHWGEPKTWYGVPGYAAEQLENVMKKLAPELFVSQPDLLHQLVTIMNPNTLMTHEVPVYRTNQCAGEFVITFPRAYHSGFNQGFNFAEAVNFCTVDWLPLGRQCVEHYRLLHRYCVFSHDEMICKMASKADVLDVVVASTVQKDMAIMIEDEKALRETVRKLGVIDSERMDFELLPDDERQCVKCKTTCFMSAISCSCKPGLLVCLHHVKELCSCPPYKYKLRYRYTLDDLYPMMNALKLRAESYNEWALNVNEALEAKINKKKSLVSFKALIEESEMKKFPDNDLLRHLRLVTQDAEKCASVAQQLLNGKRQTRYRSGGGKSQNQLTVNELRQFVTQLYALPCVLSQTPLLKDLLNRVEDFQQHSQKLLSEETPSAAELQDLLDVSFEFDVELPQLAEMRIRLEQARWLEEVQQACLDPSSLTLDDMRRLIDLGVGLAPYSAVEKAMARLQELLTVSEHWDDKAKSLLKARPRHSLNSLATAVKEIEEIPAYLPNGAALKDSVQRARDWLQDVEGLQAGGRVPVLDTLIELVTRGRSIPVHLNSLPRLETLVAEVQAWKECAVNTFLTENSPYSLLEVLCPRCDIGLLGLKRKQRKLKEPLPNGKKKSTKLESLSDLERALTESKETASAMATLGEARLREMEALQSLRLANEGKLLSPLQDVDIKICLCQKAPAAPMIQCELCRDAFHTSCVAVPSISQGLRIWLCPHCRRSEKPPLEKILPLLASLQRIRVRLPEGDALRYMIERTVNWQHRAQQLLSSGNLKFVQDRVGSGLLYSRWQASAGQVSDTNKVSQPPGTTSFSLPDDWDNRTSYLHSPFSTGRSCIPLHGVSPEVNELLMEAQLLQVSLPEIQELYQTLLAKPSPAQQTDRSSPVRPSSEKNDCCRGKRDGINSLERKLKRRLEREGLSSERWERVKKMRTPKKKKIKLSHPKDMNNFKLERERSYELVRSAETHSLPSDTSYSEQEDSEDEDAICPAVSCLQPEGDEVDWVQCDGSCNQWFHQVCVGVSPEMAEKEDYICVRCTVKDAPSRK", "test": "Primary screen for KDM5B Histone Demethylases FDH-coupled qHTS; further: nearly all actives have a fitted effect of over 70% in size; further: potency means the concentration at half of the fitted maximal effect; tags describe the fitted curve by direction and shape; on activity change, negative = inhibition: 0% is about no effect", "details": "FDH-coupled NADH fluorescence (FDH is formaldehyde dehydrogenase); activity change, negative = inhibition: at 57.7 µM (top of the series) unless noted", "in_short": "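qHTS format, multiple compound concentrations. Buffer 50 mM HEPES pH 7.5/0.01% Tween-20; 200 nM KDM5BΔAP final; 10 min compound preincubation; substrate-mix levels 12.5 µM peptide, 25 µM α-KG, 0.25 mM NAD⁺; 30 min RT; ΔRFU.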", "values": [{"compound": "CC(NC(=O)c1ccc2c(c1)OCO2)c1cccc(C(F)(F)F)c1", "note": "(stereo unspecified)", "activity change, negative = inhibition": "inactive: 11.9%"}, {"compound": "COC(=O)c1ccc(OC(=O)c2cccs2)c(OC)c1", "activity change, negative = inhibition": "inactive: -12.1%"}, {"compound": "CCN(c1ccc(-c2csc(NC)n2)cc1)S(C)(=O)=O", "Potency": "inconclusive: 31.6 µM [inhibitor, single point]"}, {"compound": "Cc1ccc(NC(=O)CN2CCN(c3ccc(C(F)(F)F)cn3)CC2)c(F)c1", "Potency": "inconclusive: 11.2 µM [inhibitor, partial curve, poor fit]"}, {"compound": "CCOc1ccc(CCNC(=O)c2ccc(-n3c(C)cc4c3CCCC4)cc2)cc1OCC", "Potency": "inconclusive: 15.8 µM [inhibitor, partial curve, poor fit]"}, {"compound": "CCn1cnnc1CC1CCN(C(=O)c2ccc3cc[nH]c3c2)C1", "note": "(stereo unspecified)", "Potency": "inconclusive: 12.6 µM [inhibitor, partial curve, poor fit]"}, {"compound": "COc1ccc2c(C)c(CCC(=O)N3CCCCC3)c(=O)oc2c1", "Potency": "inconclusive: 25.1 µM [inhibitor, partial curve, poor fit]"}, {"compound": "C#CCN(C)C(=O)[C@@H](C)C1CC[C@@]2(C)Cc3sc(NCCCC)nc3[C@@H](C)[C@@H]2[C@H]1O", "note": "(stereo partly specified)", "Potency": "inconclusive: 39.8 µM [inhibitor, partial curve, poor fit]"}, {"compound": "COc1cccc(C(=O)NCCc2csc(-c3ccccn3)n2)c1", "Potency": "inconclusive: 22.4 µM [inhibitor, single point]"}, {"compound": "O=C(N/N=C/c1ccc([N+](=O)[O-])o1)C1CCCCC1", "Potency": "inconclusive: 14.1 µM [inhibitor, partial curve, poor fit]"}, {"compound": "Cc1ccc(-n2c(SCC(=O)Nc3ccccc3F)nc3c(=O)[nH]cnc32)cc1", "activity change, negative = inhibition": "inactive: 9.09%"}, {"compound": "CCc1ccc(OCC(=O)Nc2ccc(S(=O)(=O)NC(C)(C)C)cc2)cc1", "activity change, negative = inhibition": "inactive: -20.3%"}, {"compound": "Cc1c(C)n(Cc2ccccc2)c2ccc(C(=O)NCC(C)c3ccccc3)cc12", "note": "(stereo unspecified)", "Potency": "inconclusive: 14.1 µM [inhibitor, partial curve, poor fit]"}, {"compound": "c1cc(-c2nnc3n2CCN(Cc2ccsc2)C3)ccn1", "activity change, negative = inhibition": "inactive: -2.45% [at 149 µM]"}, {"compound": "CCN(CC)c1ccc(C(=O)NCc2nnc3cc(-c4nc(C(C)C)no4)ccn23)cc1", "Potency": "inconclusive: 25.1 µM [inhibitor, partial curve, poor fit]"}, {"compound": "COc1ccc(-c2nc(C)c(C(=O)N3CCN(C(C#N)c4ccc(F)cc4)CC3)s2)cc1", "note": "(stereo unspecified)", "Potency": "inconclusive: 22.4 µM [inhibitor, partial curve, poor fit]"}, {"compound": "COc1ccccc1C(=O)/C=C/c1cccc(OC)c1OC(F)F", "activity change, negative = inhibition": "inactive: 10.2%"}, {"compound": "COCCNc1ncc(-c2cccc(N[S+](C)(=O)[O-])c2)c2c1OCC2", "Potency": "active: 35.5 µM"}, {"compound": "Cc1ccccc1OC(=O)c1nc(SCc2ccccc2F)ncc1Cl", "activity change, negative = inhibition": "inactive: -29.2%"}, {"compound": "COc1ccc(N2CCN(CCCNC(=O)c3nnc(Cc4ccc(F)cc4)o3)CC2)cc1", "Potency": "inconclusive: 15.8 µM [inhibitor, partial curve, poor fit]"}, {"compound": "CSc1nc(N)n(-c2cc(C(F)(F)F)ccn2)n1", "activity change, negative = inhibition": "inactive: 15.2%"}, {"compound": "CCOC(=O)Cn1c(=O)n(-c2cccc(Cl)c2)c2nc(-c3ccccc3Cl)nc(C(N)=O)c21", "Potency": "inconclusive: 25.1 µM [inhibitor, partial curve, poor fit]"}, {"compound": "CCOC(=O)C(NC(=O)/C=C/c1ccc2cc(OC)ccc2c1)C(=O)OCC", "Potency": "inconclusive: 15.8 µM [inhibitor, partial curve, poor fit]"}, {"compound": "COC(=O)c1cc(OC)c(OC)cc1NC(=O)c1csc(C)c1", "Potency": "inconclusive: 11.2 µM [inhibitor, partial curve, poor fit]"}, {"compound": "COC(=O)COc1ccc2cc(-c3ccc(OC)cc3)c(=O)oc2c1", "Potency": "inconclusive: 10 µM [inhibitor, partial curve, poor fit]"}, {"compound": "CC(C)C[C@@H]1N[C@H](C(=O)NCc2ccncc2)Cc2cn(Cc3ccncc3)c3cccc1c23", "Potency": "inconclusive: 17.8 µM [inhibitor, partial curve]"}, {"compound": "CCOc1ccccc1CN1CCn2c(nnc2[C@@H]2C[C@@H](O)CN2C)C1", "Potency": "inconclusive: 25.1 µM [inhibitor, partial curve, poor fit]"}, {"compound": "CSC1=N/C(=C\\c2cccc(OC(C)=O)c2)C(=O)S1", "activity change, negative = inhibition": "inactive: -5.51%"}, {"compound": "CC(=O)Nc1cccc(C(=O)N2CCC(c3n[nH]c(=O)n3-c3ccc(C)cc3)CC2)c1", "activity change, negative = inhibition": "inactive: -6.89%"}, {"compound": "COC(=O)N1CCc2nc(-c3ccc(OC)cc3)nc(-c3ccccc3)c2C1", "activity change, negative = inhibition": "inactive: 270%"}, {"compound": "O=C(CCc1ncc(-c2ccccc2F)o1)Nc1ccc(F)cc1", "Potency": "inconclusive: 22.4 µM [inhibitor, partial curve, poor fit]"}, {"compound": "Cc1ccc(-c2cc(C(=O)O)c3ccc(Br)cc3n2)cc1C", "Potency": "inconclusive: 22.4 µM [inhibitor, partial curve, poor fit]"}, {"compound": "COCCn1c(-n2nc(C)cc2C)nc2c1c(=O)n(Cc1ccc(Cl)cc1)c(=O)n2C", "activity change, negative = inhibition": "inactive: 14.5%"}, {"compound": "COc1ccc(S(=O)(=O)N(CC(=O)N2CCc3ccccc3C2)c2ccc(C)cc2)cc1", "Potency": "inconclusive: 17.8 µM [inhibitor, partial curve, poor fit]"}, {"compound": "CC1(C(=O)N2CCN(c3ccccn3)CC2)CCc2cnc(NCc3ccccc3)nc21", "note": "(stereo unspecified)", "Potency": "inconclusive: 39.8 µM [inhibitor, partial curve, poor fit]"}, {"compound": "COc1ccc(C(=O)Nc2nc3cc4c(cc3s2)OCCO4)c(OC)c1", "Potency": "inconclusive: 28.2 µM [inhibitor, partial curve, poor fit]"}, {"compound": "CC(C)C(=O)NC(=S)Nc1c(Cl)ccc2nsnc12", "Potency": "inconclusive: 39.8 µM [inhibitor, single point]"}, {"compound": "O=C(c1ccsc1)N1CCc2c(nc3cc(-c4ccccc4Cl)[nH]n3c2=O)C1", "Potency": "inconclusive: 31.6 µM [inhibitor, partial curve, poor fit]"}, {"compound": "COc1ccc(-c2ocnc2C(=O)Nc2cccc(Cl)c2C)cc1OC", "Potency": "inconclusive: 1.78 µM [inhibitor, full curve, poor fit]"}, {"compound": "NC(=O)CCC(NC(=O)c1ccc(-c2ccc(F)cc2)o1)C(=O)O", "note": "(stereo unspecified)", "Potency": "inconclusive: 25.1 µM [inhibitor, partial curve, poor fit]"}, {"compound": "Cc1ccccc1C(=O)Nc1ccc(S(=O)(=O)N2CCC(c3nc4ccccc4s3)CC2)cc1", "Potency": "inconclusive: 31.6 µM [inhibitor, single point]"}]}]}
